According to the BET-seq Pho4 binding data (Le et al. 2018):
This is one part of the list. These are noisy estimates, calculated here from bound and input reads.

Molecular target: T1, Pho4 (S. cerevisiae) (UniProt P07270)
T1 sequence: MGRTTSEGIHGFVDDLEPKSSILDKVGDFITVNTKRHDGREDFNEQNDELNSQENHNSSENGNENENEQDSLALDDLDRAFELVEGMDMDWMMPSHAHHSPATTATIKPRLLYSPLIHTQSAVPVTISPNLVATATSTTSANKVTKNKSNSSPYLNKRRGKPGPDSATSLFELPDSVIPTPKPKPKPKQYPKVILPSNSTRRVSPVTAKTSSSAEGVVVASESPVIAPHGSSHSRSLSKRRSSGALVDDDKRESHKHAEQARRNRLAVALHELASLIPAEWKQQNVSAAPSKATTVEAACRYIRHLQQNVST
Experiment: relative binding free energy (BET-seq); higher = weaker binding
Details: reference: library average

Row | Sequence | relative binding free energy [kcal/mol]
1 | CGGGTCACGTGGTGCA | -0.04
2 | GAGGGCACGTGGGGAA | 0.01
3 | TGAATCACGTGTCATG | 0.08
4 | GTAATCACGTGAAGTA | 0.46
5 | GTTACCACGTGAGGGG | 0.17
6 | TTAGCCACGTGAGTTA | 0.25
7 | AGGAGCACGTGTAAGT | 0.03
8 | GGTCACACGTGAGGCT | 0.2
9 | TACGGCACGTGATCGG | 0.05
10 | TATCGCACGTGTAGTT | 0.1
11 | GGAATCACGTGTGATT | 0.17
12 | ACTATCACGTGTAGGA | 0.25
13 | AGTTACACGTGGAGGT | 0.14
14 | TCTTACACGTGGCGGT | 0.12
15 | ATTTTCACGTGCGAGG | 0.18
16 | TGTGACACGTGTTACG | 0.08
17 | TGATACACGTGAGCGT | 0.17
18 | TCGTTCACGTGCAGGT | 0.18
19 | CGAGTCACGTGTTGAT | 0.14
20 | GGTAACACGTGATGGT | 0.18
21 | GTTTTCACGTGTTGGT | 0.32
22 | GTTTGCACGTGTTGGG | 0.14
23 | TTGTACACGTGAGCAT | 0.3

Row | Sequence | relative binding free energy [kcal/mol]
24 | GATGGCACGTGTTAGG | 0.06
25 | AGTGCCACGTGTGCTG | -0.12
26 | GGGGACACGTGCAATG | 0.11
27 | GGATTCACGTGGATGA | 0.35
28 | AAAGTCACGTGCGGTG | 0.05
29 | CTGTGCACGTGTCGGT | 0.02
30 | CGATTCACGTGTTGGT | 0.29
31 | ATTTTCACGTGTTTGG | 0.3
32 | AATGGCACGTGTAAAG | 0.13
33 | AGATTCACGTGTCGTG | 0.07
34 | TTCTGCACGTGTTAAG | 0.13
35 | ATTTTCACGTGGGCAA | 0.2
36 | TTAGACACGTGGGGGG | -0.09
37 | GTAAGCACGTGTAGGA | -0.11
38 | ATATGCACGTGTTGTA | -0.07
39 | TTGTCCACGTGGTTTT | 0.05
40 | GACGGCACGTGTTTTT | 0.1
41 | ATGGTCACGTGGTGAT | 0.03
42 | GGTTCCACGTGGGCGA | 0.1
43 | AGATGCACGTGGTTTA | -0.24
44 | TGGGTCACGTGTGTCG | 0.12
45 | TTGTGCACGTGCCTTT | -0.18
46 | GTGGTCACGTGAGCGA | 0.23

Row | Sequence | relative binding free energy [kcal/mol]
47 | AGGTGCACGTGGATAG | -0.15
48 | TGTGACACGTGCATTG | 0.09
49 | ACTGGCACGTGGGAAG | -0.17
50 | TATTACACGTGAGATT | 0.24
51 | TGCCTCACGTGGTTTG | 0.13
52 | TAATTCACGTGTCGGT | 0.23
53 | TTATACACGTGTATTA | -0.05
54 | TATAACACGTGTGGAA | 0.19
55 | AGGGTCACGTGATAGT | 0.26
56 | TTCTGCACGTGTTTAA | -0.04
57 | TATAACACGTGGTTGA | -0.15
58 | AGGGTCACGTGGTATG | 0.02
59 | CATGTCACGTGTTATG | 0.06
60 | TTGGACACGTGATGTT | 0.15
61 | CTATACACGTGGGAGT | -0.11
62 | TTGCGCACGTGCTGTT | -0.25
63 | AGAAGCACGTGTGTCG | -0.03
64 | AGGTGCACGTGAAGGC | 0.29
65 | ATGCTCACGTGGTTTA | 0.1
66 | AGGGTCACGTGTAATG | 0.14
67 | TGGGACACGTGTAGCG | 0.01
68 | GCAGTCACGTGTTAGT | 0.16
69 | GATTTCACGTGACGGG | 0.42

Row | Sequence | relative binding free energy [kcal/mol]
70 | ATGTTCACGTGGTAGT | 0.22
71 | TTTCGCACGTGAGTGT | 0.01
72 | TATGGCACGTGGCGCT | -0.18
73 | ATTTACACGTGTATGT | 0.12
74 | GGTTACACGTGGCGTT | 0.09
75 | TGGTTCACGTGGGTGC | 0.15
76 | GGTCGCACGTGTGCTG | -0.03
77 | AGGTGCACGTGACGGG | 0.16
78 | ATGAGCACGTGATGTC | 0.06
79 | ATATACACGTGGTGTT | -0.03
80 | CTTAACACGTGTGGGT | -0.1
81 | TTGCGCACGTGTGGGG | -0.05
82 | CGGGGCACGTGGAGTG | -0.08
83 | AGTGACACGTGAGTGG | 0.07
84 | GCTGGCACGTGTAGCG | -0.03
85 | AAGTACACGTGAATGG | 0.34
86 | CGGGGCACGTGTTTTC | -0.04
87 | GCAGTCACGTGGGGTG | -0.08
88 | CTGCTCACGTGTGAGG | 0.38
89 | AGATGCACGTGATGAT | 0.02
90 | TTGCGCACGTGGTTTT | -0.08
91 | AGTGGCACGTGAAGCT | 0.02
92 | TGGGGCACGTGTTCCG | -0.23

Row | Sequence | relative binding free energy [kcal/mol]
93 | TGAGTCACGTGGTATC | 0.08
94 | GGGATCACGTGCAGTT | 0.15
95 | GGGTACACGTGCGTTA | -0.12
96 | GAGTACACGTGGGAAG | 0.11
97 | TCTTGCACGTGGTCGT | -0.03
98 | TACTTCACGTGGGCGG | 0.04
99 | GGGGGCACGTGAGAGG | 0.06
100 | AAGTGCACGTGGGTCT | -0.23
101 | AGATACACGTGAGGAG | 0.26
102 | TTATACACGTGGGTTA | -0.1
103 | CATTACACGTGGGGGG | 0
104 | ATGATCACGTGGGTAT | 0
105 | GGTGGCACGTGGGCCG | -0.29
106 | TGTCGCACGTGGGAGC | -0.21
107 | GGTAGCACGTGGCAGG | -0.1
108 | GGATGCACGTGTCCGG | 0.02
109 | CGTCGCACGTGGGGAT | -0.33
110 | TAAGACACGTGGGTTG | 0.01
111 | GTGTTCACGTGAAAAA | 0.42
112 | ATGTACACGTGGTTGG | -0.02
113 | TGAAACACGTGGGTTT | -0.06
114 | TTGACCACGTGTTGCG | 0.06
115 | ATGTGCACGTGCAGCT | -0.02
